Measurements published in the RNAGym collection of RNA variant scans (doi:10.1073/pnas.2313332121).
Variants at the background level are over-represented here.

B1: TPR 5TU (parent)
chain: GGAUCUUCUCGAUCUAACAAAAAAGACAAAUCUGCCACAAAGCUUGAGAGCAUCUUCGGAUGCAGAGGCGGCAGCCUUCGGUGGCGCGAUAGCGCCAACGUUCUCAACUAUGACACGCAAAACGCGUGCUCCGUUGAAUGGAGUUUAUCAUG

Variants of: B1
Experiment: polymerase ribozyme fitness, log enrichment relative to wild type (log ratio); higher = more active; in vitro selection for triplet polymerase activity
Outline: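 After PCR construction and transcription, each subunit's mutant library from a heterodimeric triplet polymerase ribozyme was annealed with a biotinylated primer, the partner subunit and triplets. Incubation was frozen, at −7 °C, and extended constructs were gel-excised, bound to streptavidin beads and amplified by RT-PCR, in one selection round done in triplicate. Fitness is the logarithm of a genotype's enrichment divided by that of the wild type, from inverse-variance-weighted replicate averages of Illumina-sequenced inputs and outputs. The base of the logarithm is 2, and genotypes needed ≥10 input reads and ≥1 read per output.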

Polymerase ribozyme fitness (log ratio), -3.03:
U7C A17G A119U

Polymerase ribozyme fitness (log ratio), -3.86:
U7G A30G C32A A39U A60G C96U G126U G140U

Polymerase ribozyme fitness (log ratio), -2.38:
U7G A16C

Polymerase ribozyme fitness (log ratio), -3.61:
U7A A60G C85U U144C

Polymerase ribozyme fitness (log ratio), -2.93:
U7G C95U

Polymerase ribozyme fitness (log ratio), ≤ -4.2:
U7A A41C G42A G59C G67C C96G G140C G143A
U7A A49C G68A C96G
U7A A52G G58C G84A G100U A106G C131U
U7A C8A U13G A26C A41C C85G U90G U144G
U7A C10G G58C C95U C108A C116U C123U U134G U135A
U7A C14A A23C C75G C85U
U7A C18U A91U A97U U102C U144G
U7A C32G A49U U77A
U7A C32G U45A U55C C87U C93G G141U
U7A C35A U56A C79U G83U U145A
U7A G11U A39U C63G C85A A110C
U7A G42A G58C A89G G124A G143C
U7A G50C A52C C95U A142U G152A
U7A G58C C93U G100C C125A
U7A G59A A60U G68A U82G G86A U101C
U7A G70C U77C U90G A91U C103A A106G A137U
U7A U9A A21U U55A G59A C99G C129U A147C
U7A U9C A19C A21U G59U C95G U104A G128U C149U
U7A U31A A37C U55A G71A C72U G84U
U7A U31G G81C G84U C95U A107G G128U A137G
U7A U44A
U7A U53A C69G C87G
U7A U53G G59C C75G C85A A91U C129A
U7C A12G C14U A22C G67A C85A U109A C118A A142C
U7C A16U A19C G46C U90G C95A A115U
U7C A16U A49G G92C
U7C A16U A64C G88A U101G U130C
U7C A19C A21G G46U A47G U77G G92A A121U G141U U146C
U7C A19G A24U G34U C51A U77G G84A C99U
U7C A19G A52C G71U C76U C93U C99G C105A U109G C132U
U7C A20C A89G C96A U111C C118U
U7C A21U A49C A52C A64G C93U A120U A137G
U7C A23C
U7C A39U A73C C93A C96U
U7C A40U C87A
U7C A41U U56A G68C C76G C87A A97C G133U
U7C A64C U82A C103G
U7C A73G U82A G136C
U7C C10A G11C A47C U55G A60G C69U A91C G143C
U7C C14G A29U G70A C93U A107C C132G G140C G143U
U7C C18U U61C C69A C93A C114U
U7C C27A C69G G86A G100C
U7C C54U G92A A106G C116G U139A
U7C C63A C69U C95G A107C U134G
U7C C72G C87A A91G A106U A110C C116U A142C
U7C G11C G59A G71C C76U G84U A138C
U7C G42A C85G U144C
U7C G42U C43A G112U
U7C G46C U56A U77C G81A G86U G100A G133U
U7C G62A G65A G67C C76A U90G C95A C99U U111G U146G
U7C U15G G34A A47C G48A A49C U56A C76U A115G C131U
U7C U31A G88U C95U
U7C U55A C63U G88U A107U U145A
U7G A16C G25C C27G C87G A106G U144A
U7G A17C A21C A37C U55C A73C C99U A106C
U7G A17G C85A A91G G140C
U7G A17U C36G U55A C79A C103A
U7G A19C A41C A91U C96U
U7G A19U A23U A52C C69U C99U C118U G128U C132A
U7G A19U A26G A28C C32U U45G U55G U78A G128A G136U U145A
U7G A19U A52U U56A A91G C108A
U7G A19U G25U C35U C57U C79G U82G C93U C116U C125U A142G
U7G A20U A21U A30C G42C C51U C79G C96A
U7G A21C G58U U61A G62A A89C C103A C108A G143A
U7G A22C C85G G86C C105U
U7G A23C A28U C38G A121G
U7G A23G U53A C99G C116A C125G A137C
U7G A24U C35U G83A C87A C105A A115G A147U
U7G A28U A40C A138G
U7G A29U G83C C103U U130G
U7G A30C C35U C54G A91U C93A C118A C129A U148G
U7G A41C G46C G50A G84A G117A A119G U139A
U7G A47G C85U G140C
U7G A73G G83A A107C G117U
U7G C8G G25C G50A U53A G81A G94A U109A C131A
U7G C8U G59U G68U A91U A150U
U7G C10A A16C G50C A73U C99G
U7G C10G A20G A91C U104G C105G A138U
U7G C14G C43A G92A C96A A138U A142C U146A A147C
U7G C14U C32G A73G U104A G140U
U7G C32U U55A G83A C116U A119G C123G U135G
U7G C43U A64U C76A G84A C125G
U7G C63A C96G
U7G G11A C18A A37G G50A C85U G112U
U7G G11U A16G A24C U31G G34U A98G G117C
U7G G50A G59A G88C G117U A122G
U7G G50C U56G G94C
U7G G74A C93U C125A
U7G G94A G143C
U7G U9C C75U C87A A98U
U7G U9G A22U A28G A49C C96U A122U
U7G U13A A17U A20C G50A G83U C116G A122U G128A G152C
U7G U33C A89U C93U
U7G U44A U55A C57U G83A
U7G U56A G81C G128C U139C
C8A A16G A24U A29U A47G C57A U61A C85U G141C
C8A A16G A41C G92U A138C U145A G152A
C8A A16U A17U A26U G80C C87U U139G U151A
C8A A17C U31G U55A C87U
C8A A17G A22U A28C A66C C132G
C8A A17G U78G G94A G133A U134A
C8A A19C A24C C27U G74A G84C A121G
C8A A20U A29C G92U C95G C118A
C8A A20U C43G C72G G88A A89C C118U
C8A A21C U53A U56A G70U C93U G141C
C8A A21G A37C C57A C93G U104G G117C A142G U146A A147C
C8A A21G C54U C85G G100A
C8A A22C G42A C93U
C8A A22G A52C C96A U109C U145A
C8A A22U C79G G81U C95U A107U C108U
C8A A24C A64G C85G G143U
C8A A24C G25A A30G G50A A60G A115U
C8A A26C G83A A89U A98U
C8A A26U U53A G59C G86A C118G
C8A A29C G70A G81C G126U G141C
C8A A29U U33A C51A A64C G65A C69U G83A G94U A138C
C8A A37U A40C C51G C76U G84U
C8A A39U A52G U53A G81U G84U C99G A119U A120U G124U
C8A A39U A91U A137C G152U
C8A A40C G48C A60G G94C A97U C99A
C8A A40G A60U C93U G136A
C8A A60U C93A C105A G112U
C8A A89U A91G C105G A138G
C8A C10G C14G C18G C32U A47C A52C U82C C85G G133U U148C
C8A C10G U53A C57G C75G G83C U102A A121U U144A U145C
C8A C10U A22C G88U C95G C108A A119C U145G
C8A C14A G48C U82A U104A G143C A150G
C8A C14U A22U A23C C85A U90C A98U U144G
C8A C14U A47C G50C U55A C85G U90G U144G
C8A C14U C54A C99A
C8A C18G U45G C54G
C8A C27G A29G A37C U53A G80A G86U A91C G92A C105G A137C
C8A C32G A41G G50A C99U A119U A142C C149G
C8A C38U U45A C57G U78G C85A
C8A C54A
C8A C54U C87G A91G G143C
C8A C54U G92U C95U C105U C118G U139G
C8A C72U G81U G84C G88C C99U
C8A C79G G94C A107G G143U C149U
C8A C85G A121U
C8A G11C A29U C35U A49C A113U C114U
C8A G11C U15G C35G C85A G94U A150C
C8A G25U G46C G48C U127G C132A
C8A G34A A37G U61C
C8A G58A G62C C85U U109C G124A
C8A G67C G80C A91G
C8A G68A A73G C85U G126A
C8A G71U G83C A91G
C8A G84U
C8A G94C C95U
C8A U9A
C8A U9A G59A A66C C79A C87A C99U C105U
C8A U13G A47U C75G U77G G86A
C8A U13G G50C C76G C118A
C8A U15A G34A A49G A60G C87A A98G U145G
C8A U15G C35G U56C G70A G100U

Polymerase ribozyme fitness (log ratio), -3.87:
U7A G94C U111C U135A A138U

Polymerase ribozyme fitness (log ratio), -3.94:
U7G G48C G84A

Polymerase ribozyme fitness (log ratio), -3.43:
U7G C85A

Polymerase ribozyme fitness (log ratio), -3.02:
U7G G50U

Polymerase ribozyme fitness (log ratio), -4.07:
U7C A24U C96U A107G C125G U144C U151C

Polymerase ribozyme fitness (log ratio), -2.47:
U7G A19G
